PubChem BioAssay AID687022 (Broad Institute, 2013)
Among all 1,000 compounds or so, about 360 (36%) were called active.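 The calls were made as follows: active = Fitted curve of melting temperature shift crosses the 1.0 threshold at or below the sample's highest valid tested concentration; inconclusive = Flat fit with activity 30 to 70, or invalid fit; inactive = Opposite direction, flat within 30, or no crossing.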 This part holds few or none of the hits.

Target: Fibroblast growth factor 22 (Homo sapiens) (UniProt Q9HCT0)
Assay: FGF22 ligand-induced thermal stabilization – biophysical, thermal shift, cherry-pick, FGF22 synaptogenesis inhibitor project, dose response (AID 687022); also: reference of the scale not given here
Settings: recombinant FGF22 thermal shift, SYPRO orange melting; at 38 µM (top of the series) unless noted

Sequence of UniProt Q9HCT0 (Q9HCT0 whole entry, looked up): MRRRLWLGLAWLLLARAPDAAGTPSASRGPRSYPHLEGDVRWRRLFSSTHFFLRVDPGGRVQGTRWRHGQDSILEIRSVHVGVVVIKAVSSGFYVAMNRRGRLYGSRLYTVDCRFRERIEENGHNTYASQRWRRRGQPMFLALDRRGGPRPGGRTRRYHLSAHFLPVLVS

Row | SMILES | Tm shift activity
1 | CN1C(=O)NC(NS(=O)(=O)c2ccc(N)cc2)(C(F)(F)F)C1=O (centres undefined) | inactive: -0.004%
2 | O=C(c1ccccn1)N1C[C@H]2[C@@H](c3ccccc31)[C@@H](CO)N2C(=O)c1ccccn1 | inactive: 0.048% [at 42 µM]
3 | CCCCNC(=O)C1(C)CCCCN1C(=O)c1c(F)ccc(C)c1F (centres undefined) | inactive: -0.15%
4 | O=C(c1cccc(F)c1)N1C[C@@H]2[C@H](c3ccccc31)[C@H](CO)N2C(=O)C1CCCCC1 | inactive: -0.034% [at 42 µM]
5 | CC(C)CC#Cc1cnc2c(c1)C(=O)N([C@@H](C)CO)C[C@H](C)[C@@H](CN(C)Cc1ccccn1)O2 | inactive: 0.044%
6 | Cc1ccc(NC(=O)c2ccc(S(=O)(=O)NCc3cccnc3)cc2)c(C)c1 | inactive: -0.175%
7 | CC1(c2ccc3ccccc3c2)NC(=O)N(CC(=O)Nc2ncccc2O)C1=O (centres undefined) | inactive: -0.237%
8 | O=C(C[C@H]1CC[C@@H](NC(=O)Nc2cc(F)ccc2F)[C@@H](CO)O1)Nc1ccc(-c2ccccc2)cc1 | inactive: 0.124% [at 42 µM]
9 | Cc1ccc(NC(=O)COC(=O)Cn2cnc3c2c(=O)n(C)c(=O)n3C)cc1F | inactive: -1.53%
10 | CC(=O)N1[C@@H](CO)[C@@H]2c3ccccc3N(C(=O)c3ccc(F)cc3)C[C@@H]21 | inactive: -0.181%
11 | Cc1ccc(N(C(=O)c2csnn2)C(C(=O)NC2CCCC2)c2ccccn2)c(C)c1 (centres undefined) | inactive: 0.564%
12 | C[C@H](CO)N1C[C@H](C)[C@H](CN(C)CC2CCCCC2)Oc2c(NC(=O)Nc3ccc4c(c3)OCO4)cccc2C1=O | inactive: -0.569%
13 | C[C@H](NC(=O)C[C@@H]1CC[C@@H]2[C@H](COC[C@@H](O)CN2C(=O)Nc2cccc(Cl)c2)O1)c1ccccc1 | inactive: 1.03%
14 | CN1/C(=C\C(=O)c2cccc([N+](=O)[O-])c2)Sc2ccccc21 | inactive: -0.16%
15 | Cc1ccccc1-c1ccccc1[C@@H]1[C@@H](C#N)N(C(=O)c2ccccc2)[C@H]1CO | inactive: -0.262%
16 | CN1C(=O)c2cc(NC(=O)c3ccccc3Cl)ccc2OC[C@@H]2O[C@@H](CC(=O)NCC(F)(F)F)CC[C@H]21 | inactive: 0.085%
17 | CS(=O)(=O)N1CCCCN2[C@H](CO)[C@H](c3ccc(C#Cc4ccccn4)cc3)[C@@H]2C1 | inactive: 0.054% [at 42 µM]
18 | O=C(c1ccc2c(c1)OCO2)N1CC(=O)N2[C@@H](CO)[C@H](c3ccc(C#CCC4CCCC4)cc3)[C@@H]2C1 | inactive: 0.181%
19 | CC(=O)Nc1cc(-c2ccccc2Cl)cn2c(-c3ccc(S(C)(=O)=O)cc3)cnc12 | inactive: -0.375%
